Laboratory results as given in paper PMC4336329 (PLoS ONE, 2015).
Out of some 310,000 compounds screened, about 14,000 (4.5%) showed an effect of 50% or more. Effects have a minus sign here. The list shows a part of the results.

molecular target: human ether-à-go-go-related gene (hERG) potassium channel (human, UniProt Q12809); assay: primary screen, population patch clamp on CHO cells stably expressing hERG
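Also: peak tail current of the secondary pulse compared with the same well before compound.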

Sequence of human ether-à-go-go-related gene (hERG) potassium channel (Q12809 whole entry, looked up): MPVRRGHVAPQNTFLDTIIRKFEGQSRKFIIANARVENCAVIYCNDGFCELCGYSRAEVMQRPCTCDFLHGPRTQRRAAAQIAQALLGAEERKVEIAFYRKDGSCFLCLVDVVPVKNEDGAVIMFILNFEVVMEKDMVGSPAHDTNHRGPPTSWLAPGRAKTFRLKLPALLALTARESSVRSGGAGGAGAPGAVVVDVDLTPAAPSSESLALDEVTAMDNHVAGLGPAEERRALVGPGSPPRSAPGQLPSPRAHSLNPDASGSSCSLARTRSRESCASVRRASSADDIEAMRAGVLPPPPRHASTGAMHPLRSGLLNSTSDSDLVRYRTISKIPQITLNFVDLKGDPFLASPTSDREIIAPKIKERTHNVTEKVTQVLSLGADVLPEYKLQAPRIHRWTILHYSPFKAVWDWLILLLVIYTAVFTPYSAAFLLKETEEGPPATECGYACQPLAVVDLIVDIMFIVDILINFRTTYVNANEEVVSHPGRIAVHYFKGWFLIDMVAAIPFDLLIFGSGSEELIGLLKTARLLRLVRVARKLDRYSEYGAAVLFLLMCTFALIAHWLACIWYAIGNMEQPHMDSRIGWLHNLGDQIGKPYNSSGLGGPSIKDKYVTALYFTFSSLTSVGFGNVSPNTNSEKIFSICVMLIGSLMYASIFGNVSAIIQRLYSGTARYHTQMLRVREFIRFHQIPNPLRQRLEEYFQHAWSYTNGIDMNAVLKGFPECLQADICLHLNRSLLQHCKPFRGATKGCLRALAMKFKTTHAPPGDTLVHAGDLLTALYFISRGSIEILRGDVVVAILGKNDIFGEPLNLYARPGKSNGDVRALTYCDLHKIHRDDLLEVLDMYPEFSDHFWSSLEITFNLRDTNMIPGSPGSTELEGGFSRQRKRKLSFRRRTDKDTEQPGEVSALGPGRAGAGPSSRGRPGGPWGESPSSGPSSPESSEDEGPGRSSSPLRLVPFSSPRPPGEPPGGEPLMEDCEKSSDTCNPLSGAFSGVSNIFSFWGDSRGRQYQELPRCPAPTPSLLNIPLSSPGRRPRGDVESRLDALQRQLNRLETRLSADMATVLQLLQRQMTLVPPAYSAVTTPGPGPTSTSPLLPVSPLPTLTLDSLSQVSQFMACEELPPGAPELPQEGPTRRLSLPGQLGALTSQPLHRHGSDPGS

Going from `C=CC1=C2C=C(C3CC3)N(C3CC3)C=C2C(=O)C(C)(OC(=O)c2ccco2)C1=O` (centres unmarked) to `C=CCNC(=O)c1cn(CC)c2cc(N3CCN(C(=O)c4ccco4)CC3)c(F)cc2c1=O`, the “hERG current change (%, negative = inhibition) at 10uM” value falls from 0.53% to -63.6%.

Going from `NC(=O)NC(=O)CC1S/C(=N/N=C/c2ccccc2)NC1=O` (centres unmarked) to `NC(=O)NC(=O)C[n+]1cccc(/C=N/O)c1.[Cl-]`, the “hERG current change (%, negative = inhibition) at 10uM” value falls from 16.9% to 5.5%.

Going from `Cc1ccc(NC(=O)Cn2c(=O)n(CCC(=O)NC3CCN(Cc4ccccc4)CC3)c(=O)c3ccccc32)cc1` to `CC(C)Cn1c(N2CCN(CC(=O)Nc3ccc(Cl)cc3)CC2)nc2ccccc21`, the “hERG current change (%, negative = inhibition) at 10uM” value falls from -1.53% to -70.5%.

First: Cc1ccc(C2(c3noc(CN(C)Cc4cccnc4)n3)CCCC2)cc1
Second: Cc1ccc(S(=O)(=O)Nc2ccc(N3CCN(C)CC3)nc2)cc1
The “hERG current change (%, negative = inhibition) at 10uM” value of the first is higher: -2.8% for the first, -6.87% for the second.

Compared with `C/C(=N\Nc1cccc2cccnc12)c1ccccc1O`, `CCC(=O)Nc1cccc(-c2cnc3ccccc3n2)c1` is lower in “hERG current change (%, negative = inhibition) at 10uM” value: 12.4% for the first, -14.3% for the second.

Going from `CCCOc1nc2c(c(=O)n(C)c(=O)n2C)n1Cc1cccc2ccccc12` to `CCCCN(C(=O)CCCc1nc2ccccc2c(=O)[nH]1)c1c(N)n(CC(C)C)c(=O)[nH]c1=O`, the “hERG current change (%, negative = inhibition) at 10uM” value falls from -4.43% to -5.68%.

Compared with `CC(C)(C)NC(=O)CN(C(=O)CCN1CCCc2ccccc21)C(C)(C)C`, `CC1CC(C)CN(CCCOc2ccccc2[N+](=O)[O-])C1.O=C(O)C(=O)O` (centres unmarked) is lower in “hERG current change (%, negative = inhibition) at 10uM” value: -0.396% for the first, -35.5% for the second.

Compared with `CCc1ccc(Nc2nnc(SCC(=O)N(C)CC(=O)Nc3ccccc3CC)s2)cc1`, `COc1ccccc1CNC(=O)COC(=O)c1ccc(-n2cnnn2)cc1` is lower in “hERG current change (%, negative = inhibition) at 10uM” value: -14.8% for the first, -25.3% for the second.

Compared with `COC(=O)C1=C(C)N(c2ccc(OC)c(OC)c2)C(=O)/C1=C\c1cccs1`, `CCn1c(SCc2nc3cc(OC)c(OC)cc3c(=O)[nH]2)nnc1-c1ccncc1` is lower in “hERG current change (%, negative = inhibition) at 10uM” value: 14.6% for the first, -2.93% for the second.

Compared with `Cn1c(=O)oc2cc(S(=O)(=O)N3CCC(C(=O)N4CCN(c5ccccc5)CC4)CC3)ccc21`, `Cc1c(NC(=O)C2CCN(S(=O)(=O)c3cccs3)CC2)c(=O)n(-c2ccccc2)n1C` is higher in “hERG current change (%, negative = inhibition) at 10uM” value: -10.2% for the first, 7.93% for the second.

First: CCN(CC)C(=O)Nc1c(C)n(C)n(-c2ccccc2)c1=O
Second: O=C1C2CCCN2C(=O)N1CCN1CCN(c2ccccc2)CC1 (centres unmarked)
The “hERG current change (%, negative = inhibition) at 10uM” value of the first is higher: 0.329% for the first, -8% for the second.

Compared with `Cn1ccnc1SCC(=O)NC1(C#N)CCCCC1`, `O=C(Cn1cc2c(n1)CCCCC2)NCCN1CCOCC1` is lower in “hERG current change (%, negative = inhibition) at 10uM” value: 6.91% for the first, 6.47% for the second.

Going from `O=C(Nc1nc(-c2ccccc2)ns1)c1cccs1` to `COCCCN(C(C)=O)c1nc(-c2ccccc2)cs1`, the “hERG current change (%, negative = inhibition) at 10uM” value falls from -3.32% to -23.4%.

First: CCN1CCN(Cc2ccc(NC(=O)c3ccc(C)c(NC(=O)c4nccn4C)c3)cc2C(F)(F)F)CC1
Second: CCOc1ccc(NS(=O)(=O)c2ccc(C(=O)NCCN3CCOCC3)cc2)cc1
The “hERG current change (%, negative = inhibition) at 10uM” value of the first is lower: -4.82% for the first, 2.96% for the second.

Compared with `Cc1c(-c2nc(N)nc(Nc3ccccc3)n2)oc2ccccc12`, `Cc1c(-c2cccc(Cl)c2)nc2ccccc2c1C(=O)OC/C(O)=C(\C#N)c1nc2ccccc2[nH]1` is lower in “hERG current change (%, negative = inhibition) at 10uM” value: 13% for the first, 6.73% for the second.

Compared with `COc1ccc(C(=O)CCc2nc3ccccc3s2)cc1`, `Cc1ccc(OCc2nc3ccccc3n2C)cc1` is lower in “hERG current change (%, negative = inhibition) at 10uM” value: 4.87% for the first, -24.2% for the second.

Compared with `Cc1cccc(-n2cc(-c3ccc([N+](=O)[O-])cc3)[nH]c2=S)c1`, `COc1cccc(C(=O)O/N=C(\N)c2ccc(C)cc2)c1` is lower in “hERG current change (%, negative = inhibition) at 10uM” value: -2.96% for the first, -6.05% for the second.

Going from `O=C(COC(=O)c1ccccc1SCC(=O)N1CCCC1)Nc1ccc(OC(F)F)cc1` to `O=C(O)CSCC(=O)N1CCN(c2cc(C(F)(F)F)nc3ccccc23)CC1`, the “hERG current change (%, negative = inhibition) at 10uM” value rises from -48% to 23.5%.

First: O=C(CCC(=O)n1ncc2ccccc21)NCc1ccccc1Cl
Second: O=C(c1ccccc1)C1C(=O)c2ccccc2C1=O
The “hERG current change (%, negative = inhibition) at 10uM” value of the first is lower: 6.63% for the first, 10.1% for the second.

Going from `O=c1[nH]c(C2CCN(S(=O)(=O)c3ccc(C(F)(F)F)cc3)CC2)nc2c1nnn2Cc1cccc(F)c1` to `Cc1cccc(NC(=O)Cn2cnc3sc(C)c(S(=O)(=O)N4CCC(C)CC4)c3c2=O)n1`, the “hERG current change (%, negative = inhibition) at 10uM” value rises from -8.3% to 11.8%.

Compared with `CCOC(=O)N1CCN(C(=O)c2noc(C(C)C)c2[N+](=O)[O-])CC1`, `CCOC(=O)C1(Cc2cccc(Cl)c2)CCCN(C(=O)c2cn[nH]c2)C1` (centres unmarked) is lower in “hERG current change (%, negative = inhibition) at 10uM” value: -4.21% for the first, -8.81% for the second.

First: Cc1cccc(NS(=O)(=O)c2cc3c(cc2C)N(C)CCO3)c1
Second: O=S(=O)(NC1=NCCC1)c1cccc(NS(=O)(=O)c2ccc(F)c(Cl)c2)c1
The “hERG current change (%, negative = inhibition) at 10uM” value of the first is higher: 8.56% for the first, -1.14% for the second.

Going from `CCOc1ccc(N2C(=O)C3Sc4[nH]c(=O)sc4C(/C=C/c4ccccc4)C3C2=O)cc1` (centres unmarked) to `COc1cc(/C=C2/SC(=S)N(Cc3ccccc3)C2=O)ccc1O`, the “hERG current change (%, negative = inhibition) at 10uM” value rises from 1.26% to 3.35%.

Going from `O=C(O)C(=O)O.O=S(=O)(c1ccc(F)cc1)N1CCN(CC2CC3C=CC2C3)CC1` (centres unmarked) to `Cc1c(C(=O)NCc2ccc3c(c2)OCO3)oc2ccc(S(=O)(=O)N3CCCC3)cc12`, the “hERG current change (%, negative = inhibition) at 10uM” value rises from 9.53% to 21.3%.

First: C/C(=N/NS(=O)(=O)c1ccc(C(C)(C)C)cc1)c1ccc2c(c1)OCO2
Second: O=C(NCC1COc2ccccc2O1)c1cccc(S(=O)(=O)NCc2ccccc2)c1 (centres unmarked)
The “hERG current change (%, negative = inhibition) at 10uM” value of the first is higher: -3.17% for the first, -24.5% for the second.

First: Cc1cccc(C)c1NC(=O)COC(=O)c1ccc2[nH]c3c(c2c1)CCCC3
Second: Cc1cc(=O)oc2cc(OC(C)C(=O)Nc3ccc(C(N)=O)cc3)ccc12 (centres unmarked)
The “hERG current change (%, negative = inhibition) at 10uM” value of the first is lower: 4.47% for the first, 5% for the second.

First: CCOC(=O)C1=C(CSc2nc(-c3ccccc3)ccc2C#N)OC(N)=C(C#N)C1c1ccc(OC)cc1 (centres unmarked)
Second: COc1ccc2c(c1)CCc1c(C(=O)N3CCc4ccccc4C3)noc1-2
The “hERG current change (%, negative = inhibition) at 10uM” value of the first is higher: 6.85% for the first, -20.9% for the second.

Going from `O=C(Nc1nccs1)C(Cl)(Cl)Cl` to `COC(=O)Cc1csc(N)[nH+]1.[Cl-]`, the “hERG current change (%, negative = inhibition) at 10uM” value falls from 28.3% to 21.1%.

First: O=C(CSc1nnnn1-c1ccccc1)N1N=CCC1c1ccccc1 (centres unmarked)
Second: c1ccc(-n2ncc3c(NCC4CCCO4)ncnc32)cc1 (centres unmarked)
The “hERG current change (%, negative = inhibition) at 10uM” value of the first is lower: -17.6% for the first, -5.26% for the second.

Compared with `COC(=O)c1sc(-c2ccc(Cl)cc2)cc1NC(=O)COCC(=O)O`, `COC(=O)C1=C(c2ccc(-c3ccccc3)c(F)c2)C[C@@H]2CC[C@H]1N2C(=O)NCCNC(C)=O` is lower in “hERG current change (%, negative = inhibition) at 10uM” value: 16.6% for the first, 7.03% for the second.

Going from `CCn1c(CNC(=O)c2cccs2)n[nH]c1=S` to `Cc1ccsc1C(=O)C1CCCN(Cc2ccn[nH]2)C1` (centres unmarked), the “hERG current change (%, negative = inhibition) at 10uM” value rises from 3.27% to 6.96%.

Going from `O=C(Nc1ccccc1)C1=C[C@H](c2ccc(C(F)(F)F)cc2)C[C@H](OCCCCO)O1` to `COC(=O)Cc1ccc(NC(=S)NCc2ccc(F)cc2)cc1`, the “hERG current change (%, negative = inhibition) at 10uM” value falls from -12.8% to -74.4%.

Compared with `CC(C)Cc1nnc(NC(=O)CSc2ncn[nH]2)s1`, `O=C(CN1CCN(c2ccccc2F)CC1)Nc1nnc(C(F)(F)F)s1` is lower in “hERG current change (%, negative = inhibition) at 10uM” value: 7.76% for the first, -1.49% for the second.

Going from `O=C(C1CCC1)N1CCc2cc(S(=O)(=O)NCc3ccco3)ccc21` to `COc1ccc(OCC(=O)N(Cc2ccco2)C2CCS(=O)(=O)C2)cc1` (centres unmarked), the “hERG current change (%, negative = inhibition) at 10uM” value falls from -2.87% to -18.9%.

First: COc1ccc(C(C(=O)NCCC(C)C)N(CCO)C(=O)c2snc(C(N)=O)c2N)cc1OC (centres unmarked)
Second: COc1cccc(NC(=O)CN(c2cccc(OC)c2)S(C)(=O)=O)c1
The “hERG current change (%, negative = inhibition) at 10uM” value of the first is higher: 13.8% for the first, -4.7% for the second.

First: CC1(C)C(=O)C=C[C@]2(C)[C@H]3CC[C@@]4(C)[C@H](c5ccoc5)OC(=O)[C@H]5O[C@]54[C@]3(C)[C@H](O)C[C@@H]12
Second: CCCN1C(=O)C(O)(C2CC(=O)CC(C)(C)O2)c2ccccc21 (centres unmarked)
The “hERG current change (%, negative = inhibition) at 10uM” value of the first is higher: 8.63% for the first, -10.3% for the second.

Going from `Cc1cc(C(=O)Nc2nnc(C3CCCCC3)s2)no1` to `COCCNC(=O)c1c(N)sc2c1CCCC2`, the “hERG current change (%, negative = inhibition) at 10uM” value rises from -8.9% to -0.506%.

First: Cc1cc(C)n2nc(SCC(=O)N/N=C/c3ccccn3)nc2n1
Second: Cc1cc([N+](=O)[O-])nn1CC(=O)NCCCn1ccnc1
The “hERG current change (%, negative = inhibition) at 10uM” value of the first is higher: 3.74% for the first, -2.86% for the second.

First: CCC(C)[C@H](NC(=O)NCc1ccco1)C(=O)O (some centres unmarked)
Second: Cc1ccc(C)c(NC(=O)CCN2CC(C)OC(C)C2)c1 (centres unmarked)
The “hERG current change (%, negative = inhibition) at 10uM” value of the first is higher: 24.1% for the first, 1.59% for the second.

First: Clc1ccc(-c2cc3ccccc3nc2N2CCOCC2)cc1
Second: S=C(c1ccc(-c2ccccc2Cl)o1)N1CCOCC1
The “hERG current change (%, negative = inhibition) at 10uM” value of the first is higher: 18.1% for the first, 11.5% for the second.

First: S=c1[nH]nc(-c2cccnc2)n1/N=C/C=C/c1ccccc1
Second: O=C1c2ccccc2C(=O)N1Cc1nn2c(-c3ccc(Cl)cc3)nnc2s1
The “hERG current change (%, negative = inhibition) at 10uM” value of the first is higher: 17% for the first, 0.764% for the second.

Going from `C=CCn1c(=N)c(C(=O)NCCCOC)cc2c(=O)n3cccc(C)c3nc21` to `CCc1nn(CC(=O)NCCCN2CCc3ccccc3C2)c(=O)c2cc3sccc3n12`, the “hERG current change (%, negative = inhibition) at 10uM” value rises from -73.5% to -70.2%.

Compared with `CCOC(=O)C1=C(C)NC(C)=C(C(=O)OCC)C1C(=O)OCC(=O)N1CCCCC1C` (centres unmarked), `CC(=O)N1N=C(N)SC1(C)C` is higher in “hERG current change (%, negative = inhibition) at 10uM” value: 2% for the first, 8.14% for the second.
